Experimental data reported in the supplement of paper PMC12217912.
Some of the results follow. Sequences were assembled here from the parent chain. Inactive controls read about 0.05.

B1: TEV protease; numbered along this chain (parent)
chain: MGESLFKGPRDYNPISSSICHLTNESDGHTTSLYGIGFGPFIITNKHLFRRNNGTLVVQSLHGVFKVKDTTTLQQHLVDGRDMIIIRMPKDFPPFPQKLKFREPQREERICLVTTNFQTKSMSSMVSDTSCTFPSGDGIFWKHWIQTKDGQCGSPLVSTRDGFIVGIHSASNFTNTNNYFTSVPKNFMELLTNQEAQQWVSGWRLNADSVLWGGHKVFMVKPEEPFQPVKEATQL

Variants of: B1
Assay: raw area under fraction-flipped curve 0-4 h after induction (AUC4h, not background-subtracted), DNA-recorder readout of cleavage of the substrate (dimensionless); higher = more cleavage of the substrate by the protease variant
Settings: temperature: 34 °C; time window: 0-4 h after rhamnose induction
Procedure: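 In vivo DNA recorder in E. coli TOP10(DE3) ΔrhaA at 34 °C. Each TEVp single-site mutant (parent TEVp 0) is paired with a single-site variant of the 7-mer TEVs (canonical ENLYFQ|S). The substrate sits between flexible linkers in a Bxb1-sfGFP-TEVs-SsrA fusion, so cleavage stabilises Bxb1 and speeds flipping of a recombination array, read by NGS. The value is the raw area under the fraction-flipped curve over 0-4 h after rhamnose induction (AUC4h), with ≥20 reads per time point. It is not background-subtracted; inactive controls average about 0.047.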
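Also: Bxb1 expression induced with 0.2% (w/v) L-rhamnose at OD600 near 0.5, cultures sampled hourly, flipped fraction per protease–substrate barcode pair counted by paired-end Illumina sequencing.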

| Variant | area with substrate ENAYFQS | area with substrate ENCYFQS | area with substrate ENDYFQS | area with substrate ENEYFQS | area with substrate ENFYFQS | area with substrate ENHYFQS | area with substrate ENKYFQS | area with substrate ENPYFQS | area with substrate ENQYFQS | area with substrate ENRYFQS | area with substrate ENSYFQS | area with substrate ENTYFQS | area with substrate ENYYFQS | area with substrate ENGYFQS | area with substrate ENIYFQS | area with substrate ENMYFQS | area with substrate ENNYFQS | area with substrate ENWYFQS | area with substrate ENVYFQS |
| --- | --- | --- | --- | --- | --- | --- | --- | --- | --- | --- | --- | --- | --- | --- | --- | --- | --- | --- | --- |
| MGESLFKGPRDYNPISSSICHLTNESDGHTTSLYGIGFGPFIITNKHLFRRNNGTLVVQSLHGVFKVKDTTTLQQHLVDGRDMIIIRMPKDFPPFPQKLKFREPQREERICLVTTNFQTKSMSSMVSDTSCTFPSGDGIFWKHWIQTKDGQCGSPLVSTRFGFIVGIHSASNFTNTNNYFTSVPKNFMELLTNQEAQQWVSGWRLNADSVLWGGHKVFMVKPEEPFQPVKEATQL [D161F] | 0.055 | 0.0546 | 0.0615 | 0.0588 | 0.0597 | 0.0552 | 0.0446 | 0.0425 | 0.0544 | 0.0488 | 0.0608 | 0.0469 | 0.0486 | – | – | – | – | – | – |
| MGESLFKGPRDYNPISSSICHLTNESDGHTTSLYGIGFGPFIITNKHLFRRNNGTLVVQSLHGVFKVKDTTTLQQHLVDGRDMIIIRMPKDFPPFPQKLKFREPQREERICLVTTNFQTKSMSSMVSDTSCTFPSGDGIFWKHWIQTKDGQCGSPLVSTRKGFIVGIHSASNFTNTNNYFTSVPKNFMELLTNQEAQQWVSGWRLNADSVLWGGHKVFMVKPEEPFQPVKEATQL [D161K] | 0.0541 | 0.0525 | 0.0576 | 0.0547 | 0.0455 | 0.0558 | 0.0354 | – | 0.067 | 0.0631 | 0.0623 | 0.0905 | 0.0484 | 0.0711 | 0.0632 | 0.0535 | 0.0557 | 0.0471 | – |
| MGESLFKGPRDYNPISSSICHLTNESDGHTTSLYGIGFGPFIITNKHLFRRNNGTLVVQSLHGVFKVKDTTTLQQHLVDGRDMIIIRMPKDFPPFPQKLKFREPQREERICLVTTNFQTKSMSSMVSDTSCTFPSGDGIFWKHWIQTKDGQCGSPLVSTRDMFIVGIHSASNFTNTNNYFTSVPKNFMELLTNQEAQQWVSGWRLNADSVLWGGHKVFMVKPEEPFQPVKEATQL [G162M] | 0.0553 | 0.0611 | 0.0561 | 0.0482 | 0.0477 | 0.0687 | – | 0.0212 | 0.0637 | – | 0.0989 | 0.0653 | 0.0672 | 0.046 | 0.088 | 0.0715 | 0.0583 | – | 0.0611 |
| MGESLFKGPRDYNPISSSICHLTNESDGHTTSLYGIGFGPFIITNKHLFRRNNGTLVVQSLHGVFKVKDTTTLQQHLVDGRDMIIIRMPKDFPPFPQKLKFREPQREERICLVTTNFQTKSMSSMVSDTSCTFPSGDGIFWKHWIQTKDGQCGSPLVSTRDGRIVGIHSASNFTNTNNYFTSVPKNFMELLTNQEAQQWVSGWRLNADSVLWGGHKVFMVKPEEPFQPVKEATQL [F163R] | 0.0638 | 0.112 | 0.0539 | 0.0602 | 0.0635 | 0.0409 | – | – | – | 0.0688 | 0.0601 | 0.0631 | 0.0701 | 0.0584 | 0.0847 | 0.0806 | 0.0629 | – | 0.0878 |
| MGESLFKGPRDYNPISSSICHLTNESDGHTTSLYGIGFGPFIITNKHLFRRNNGTLVVQSLHGVFKVKDTTTLQQHLVDGRDMIIIRMPKDFPPFPQKLKFREPQREERICLVTTNFQTKSMSSMVSDTSCTFPSGDGIFWKHWIQTKDGQCGSPLVSTRDGFCVGIHSASNFTNTNNYFTSVPKNFMELLTNQEAQQWVSGWRLNADSVLWGGHKVFMVKPEEPFQPVKEATQL [I164C] | 0.0583 | 0.0834 | 0.0651 | 0.0534 | 0.0552 | 0.0618 | – | 0.0885 | 0.0561 | 0.0528 | 0.0607 | 0.0421 | – | 0.0607 | 0.102 | 0.0727 | 0.0579 | – | 0.0733 |
| MGESLFKGPRDYNPISSSICHLTNESDGHTTSLYGIGFGPFIITNKHLFRRNNGTLVVQSLHGVFKVKDTTTLQQHLVDGRDMIIIRMPKDFPPFPQKLKFREPQREERICLVTTNFQTKSMSSMVSDTSCTFPSGDGIFWKHWIQTKDGQCGSPLVSTRDGFIVRIHSASNFTNTNNYFTSVPKNFMELLTNQEAQQWVSGWRLNADSVLWGGHKVFMVKPEEPFQPVKEATQL [G166R] | 0.0569 | 0.0604 | 0.0543 | 0.0811 | 0.0553 | 0.0546 | 0.0625 | – | 0.0537 | – | 0.0452 | – | – | 0.0461 | 0.0543 | – | 0.0499 | 0.054 | 0.0539 |
| MGESLFKGPRDYNPISSSICHLTNESDGHTTSLYGIGFGPFIITNKHLFRRNNGTLVVQSLHGVFKVKDTTTLQQHLVDGRDMIIIRMPKDFPPFPQKLKFREPQREERICLVTTNFQTKSMSSMVSDTSCTFPSGDGIFWKHWIQTKDGQCGSPLVSTRDGFIVVIHSASNFTNTNNYFTSVPKNFMELLTNQEAQQWVSGWRLNADSVLWGGHKVFMVKPEEPFQPVKEATQL [G166V] | 0.045 | 0.0535 | 0.0619 | 0.0433 | 0.0558 | 0.0552 | – | 0.0638 | 0.0561 | – | 0.0502 | 0.0539 | – | 0.0515 | – | – | 0.0494 | – | 0.063 |
| MGESLFKGPRDYNPISSSICHLTNESDGHTTSLYGIGFGPFIITNKHLFRRNNGTLVVQSLHGVFKVKDTTTLQQHLVDGRDMIIIRMPKDFPPFPQKLKFREPQREERICLVTTNFQTKSMSSMVSDTSCTFPSGDGIFWKHWIQTKDGQCGSPLVSTRDGFIVGWHSASNFTNTNNYFTSVPKNFMELLTNQEAQQWVSGWRLNADSVLWGGHKVFMVKPEEPFQPVKEATQL [I167W] | 0.0655 | 0.0559 | 0.0619 | 0.0584 | 0.0645 | 0.0531 | – | – | 0.0492 | 0.0565 | 0.0618 | 0.0595 | – | 0.0642 | – | 0.0687 | 0.0505 | 0.0542 | 0.0576 |
| MGESLFKGPRDYNPISSSICHLTNESDGHTTSLYGIGFGPFIITNKHLFRRNNGTLVVQSLHGVFKVKDTTTLQQHLVDGRDMIIIRMPKDFPPFPQKLKFREPQREERICLVTTNFQTKSMSSMVSDTSCTFPSGDGIFWKHWIQTKDGQCGSPLVSTRDGFIVGIWSASNFTNTNNYFTSVPKNFMELLTNQEAQQWVSGWRLNADSVLWGGHKVFMVKPEEPFQPVKEATQL [H168W] | 0.0596 | 0.058 | 0.0611 | 0.0594 | 0.051 | 0.0629 | 0.0316 | – | 0.0683 | 0.0535 | 0.0591 | 0.0564 | 0.054 | 0.0628 | – | 0.0543 | 0.0622 | – | – |
